# Laboratory results taken from PubChem BioAssay AID488969 (Vanderbilt High Throughput Screening Facility, 2010).
# Over roughly 110,000 compounds, “z-score” has its median near -0.1; the highest 2% begin near 2. The list shows a part of the results. Active and inactive are the calls of the source.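 The calls were made as follows: active = z-score in the third read window above 3 or below -3; inactive = the rest.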
# Target: Metabotropic glutamate receptor 8 (Rattus norvegicus) (UniProt P70579)
# Assay: rat mGluR8 modulators via GIRK flux, primary screen, cell-based, thallium flux, HTS (AID 488969)
# Details: HEK293 rat mGluR8, GIRK (G protein-gated inwardly rectifying potassium channel) thallium flux, FluoZin2; at 10 µM; stronger effect = higher value; submaximal glutamate (EC20) added with thallium
# Sequence of UniProt P70579 (P70579 whole entry, looked up): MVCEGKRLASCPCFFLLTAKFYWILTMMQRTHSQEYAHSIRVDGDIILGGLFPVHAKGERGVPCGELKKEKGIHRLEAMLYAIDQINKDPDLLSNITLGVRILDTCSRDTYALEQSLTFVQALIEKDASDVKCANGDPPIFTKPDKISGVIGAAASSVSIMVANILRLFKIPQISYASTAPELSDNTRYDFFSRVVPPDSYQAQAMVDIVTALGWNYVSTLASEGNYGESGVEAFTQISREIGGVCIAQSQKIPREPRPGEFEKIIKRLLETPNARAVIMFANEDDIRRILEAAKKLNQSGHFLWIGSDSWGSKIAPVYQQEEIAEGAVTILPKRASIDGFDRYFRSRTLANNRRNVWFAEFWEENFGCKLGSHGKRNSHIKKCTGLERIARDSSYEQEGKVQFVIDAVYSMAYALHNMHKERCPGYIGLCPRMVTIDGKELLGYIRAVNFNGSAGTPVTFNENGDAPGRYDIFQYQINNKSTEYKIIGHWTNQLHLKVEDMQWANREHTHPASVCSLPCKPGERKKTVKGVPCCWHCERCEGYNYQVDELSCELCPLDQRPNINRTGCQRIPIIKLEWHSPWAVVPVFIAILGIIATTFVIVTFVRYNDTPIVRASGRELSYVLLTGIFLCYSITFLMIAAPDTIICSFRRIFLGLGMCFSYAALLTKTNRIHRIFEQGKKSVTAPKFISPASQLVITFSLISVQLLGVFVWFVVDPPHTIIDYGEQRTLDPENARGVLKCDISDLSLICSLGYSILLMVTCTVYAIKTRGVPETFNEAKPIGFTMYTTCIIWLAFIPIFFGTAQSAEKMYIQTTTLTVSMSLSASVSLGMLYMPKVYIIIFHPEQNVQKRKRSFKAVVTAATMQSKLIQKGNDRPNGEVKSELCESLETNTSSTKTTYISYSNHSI
row,SMILES,z-score
1,CNC(=O)CSc1nc2c(c(=O)n(C)c(=O)n2C)n1Cc1ccc(C)cc1,2.07
2,COC(=O)CC(N)c1ccc(OC)c2ccccc12 (stereo not given),0.166
3,CCN(CC)CCOCCOc1cc(C)c(Cl)c(C)c1,0.603
4,CC(C)(CO)NCC(=O)Nc1cc(C(F)(F)F)cc(NC(=O)CNC(C)(C)CO)c1Cl,0.023
5,CCNCC(=O)N1c2ccccc2CCc2ccc(NC(C)=O)cc21,-0.541
6,Cc1cc(C)n2c(SCC(=O)Nc3ccc(Cl)cn3)nnc2n1,-0.145
7,CN(C)S(=O)(=O)c1cccc(NC(=O)Cc2ccc(Cl)cc2)c1,active: 4.58
8,C(=C\c1cc(/C=C/c2ccccc2)ncn1)/c1ccccc1,-0.205
9,CCOc1ccc(C2CC(c3ccccc3C)n3ncnc3N2)cc1 (stereo not given),-0.364
10,Cc1nc2ccc(S(=O)(=O)NC(C(=O)NCc3ccc4c(c3)OCO4)C(C)C)cc2s1 (stereo not given),-0.0773
11,O=C(NC(=O)N1CCN(c2ccccc2)CC1)c1ccc(Cl)cc1,0.734
12,COc1cc(/C=c2/sc3nc(-c4ccccc4)c(-c4ccccc4)n3c2=O)cc(OC)c1OC,-0.244
13,O=S(=O)(Nc1ccc2c(c1)OCCO2)c1cccc2nsnc12,-0.16
14,Cc1cccc(CSc2ccc(-c3cccs3)nn2)c1,0.0583
15,CCOC(=O)CN(Cc1sccc1C)C(=O)Nc1ccc(OC)cc1OC,1.28
16,CN(CCNC(=O)c1ccc(N2CCCC2=O)cc1)CCc1ccccc1,-0.267
17,CCOc1ccc(Cn2c3ccc(OC)cc3c3nc4ccccc4nc32)cc1,-0.164
18,Cc1cc(C(=O)OCC(=O)NCCCN2CCCC2=O)c2ccccc2n1,0.0328
19,CCOCCn1c(=NC(=O)c2cc(Cl)sc2Cl)sc2cc(S(N)(=O)=O)ccc21,-0.0217
20,C=CCNc1ncnc2c1[nH]c1ccc(C)cc12,-0.185
21,COc1cc2ccccc2cc1C(=O)Nc1ccc(S(=O)(=O)Nc2cc(C)on2)cc1,-0.249
22,C=CCS/C(=N\n1cnc2ccccc2c1=O)N(CC)CC,0.506
23,CCOCCCNCC(=O)N1CCN(S(=O)(=O)c2ccc(C)cc2)CC1,0.811
24,COc1ccc(NS(=O)(=O)c2ccc(S(=O)(=O)N3CCCC3)cc2)cc1Cl,-0.164

row,SMILES,z-score
1,Cc1cnn(CCC(=O)NNC(=S)Nc2ccccc2)c1,-0.0444
2,CN(C)c1ccc(/C=N/c2cc(-c3ccccc3)nn2-c2ccccc2)cc1,-0.221
3,CCOc1ccc(NC(N)=O)cc1OCC,-0.0733
4,Cc1onc(-c2c(Cl)cccc2Cl)c1C(=O)Nc1c(C)n(C)n(-c2ccccc2)c1=O,0.635
5,C/C(=N\NC(=S)NC(C)C)c1ccc(Cl)s1,active: 5.46
6,O=C1CCCc2[nH]nc(-c3cccnc3)c21,-0.319
7,CCn1nc(C)c(NC(=O)CCSc2nc(-c3ccco3)cc(C(F)(F)F)n2)c1C,-0.494
8,O=C(NCC1CCCO1)C1CC1(c1ccccc1)c1ccccc1 (stereo not given),1.76
9,Cc1ccc(N2CCN(CC(=O)Nc3c(C(=O)C4CC4)oc4ccccc34)CC2)cc1,-0.413
10,COCc1nnc(NC(=O)CCSc2ccccc2)s1,-0.0854
11,CCn1c(=S)sc2c(=O)n(-c3ccccc3)c(SC)nc21,-0.531
12,N#Cc1c(NC(=S)NC(=O)Cc2cccs2)sc2c1CCCCC2,0.576
13,CCCn1c(-c2nonc2N)nc2ccccc21,-0.0596
14,O=C(CSc1cn(CCNC(=O)c2cccs2)c2ccccc12)NC1CCCCC1,-0.0746
15,CCCC(=O)Nc1ccc2nc(SCC(=O)Nc3ccc(N4CCOCC4)c(Cl)c3)sc2c1,0.487
16,COCCCNc1oc(-c2ccccc2F)nc1C#N,-0.0333
17,Cc1ccc(S(=O)(=O)N(CCO)c2cc3c(s2)CCCC3)cc1,-0.0191
18,c1cc2nncn2nc1N1CCCC1,-0.181
19,O=C(CC1(O)C(=O)N(Cc2ccc3c(c2)OCO3)c2ccccc21)c1ccccc1 (stereo not given),-0.394
20,O=C(NC1CS(=O)(=O)CC1NCc1ccccc1)c1ccccc1 (stereo not given),0.00939
21,CC(=O)Nc1ccc(S(=O)(=O)NCc2ccc(C(=O)NC(C)c3ccccc3)cc2)cc1 (stereo not given),-0.32
22,COc1ccccc1NC(=O)C1CCCCN1S(=O)(=O)c1ccc(F)cc1 (stereo not given),-0.247
23,Cn1c(=O)oc2cc(S(=O)(=O)NCCC(=O)N3CCc4ccccc4C3)ccc21,-0.0159
24,CCOC(=O)C1(S(=O)(=O)c2ccc(Cl)cc2)CCN(Cc2ccc(Cl)cc2)CC1,0.334

row,SMILES,z-score
1,Cc1cc(C)cc(Oc2cc(NC(=O)c3cn(C)nc3C)cc([N+](=O)[O-])c2)c1,-0.139
2,CCc1nnc(NC(=O)CCN(c2ccc(C)cc2)S(=O)(=O)c2ccccc2)s1,-1.49
3,CS(=O)(=O)N(CC(O)CON=C1c2ccccc2-c2ccccc21)c1ccc(F)cc1 (stereo not given),0.31
4,CC1(C)Cc2c(sc3[nH]c(=S)n(Cc4ccco4)c(=O)c23)CO1,active: 8.31
5,CC(=O)Nc1ccc(S(=O)(=O)Nc2nnc(C(C)(C)C)s2)cc1,0.307
6,O=C(/C=C/c1ccc2c(c1)OCO2)Nc1cc(S(=O)(=O)N2CCOCC2)ccc1N1CCOCC1,-0.667
7,CCCCn1nc(C(=O)Oc2ccc3c(C)cc(=O)oc3c2)c2ccccc2c1=O,-1.21
8,Cc1ccc(Nc2nc3ccccc3o2)cc1F,0.0121
9,CC1Cc2ccccc2N1C(=O)c1cc2sccc2n1Cc1ccc(F)cc1 (stereo not given),-0.392
10,Cc1ccc2nc(SCC(=O)NCc3ccco3)c(C#N)cc2c1,0.0682
11,C=CCNC(=O)c1ccc2nc(-c3ccccc3)c(-c3ccccc3)nc2c1,-0.148
12,CCn1c(SCC(=O)N2CCOCC2)nc2c(c1=O)SC(C)C2 (stereo not given),-1.09
13,Cc1ccc(-n2nc(C)cc2Nc2ncc(Cl)cc2Cl)cc1,0.588
14,CCOc1ccc(S(=O)(=O)NCCC(=O)OC(C)C(=O)N2CCc3ccccc32)cc1 (stereo not given),-0.474
15,O=C(Nc1nc(-c2ccc(-c3ccccc3)cc2)cs1)C1CCCO1 (stereo not given),0.31
16,CC(C)(C)NC(=O)CSc1ncnc2c1nnn2Cc1ccccc1Cl,0.479
17,CCOC(=O)c1ccc(N2C(=O)CC(NC3CCN(C(=O)c4cccc(Cl)c4)CC3)C2=O)cc1 (stereo not given),-0.178
18,CCCS(=O)(=O)NCCc1cc2c(OC)ccc(OC)c2[nH]c1=O,0.0641
19,CC(=O)Oc1ccccc1/C=C1\CCOC1=O,-0.104
20,O=C(/C=C/c1cccc2ccccc12)NCCC1=CCCCC1,-0.101
21,O=C(Nc1cc2ccccc2oc1=O)C1CCCCC1,-0.251
22,Cc1ccc(C(=O)C2=C(O)C(=O)N(Cc3ccccc3)C2c2cccnc2)o1 (stereo not given),-0.709
